# Laboratory results from PubChem BioAssay AID686971 (National Center for Advancing Translational Sciences (NCATS), 2013).
# Screen size: about 360,000 compounds; about 7,500 (2.1%) were called active. The inconclusive results got no clear call from the source; some entries with a clear call stand among them for comparison. Calls come from the whole dose curve; as a rule, active = well fitted cell-killing curve with a large enough effect; inconclusive = small, poorly fitted or top-dose-only effect, or effect the other way, or another doubt; inactive = no such curve, though single readings can be large or run the other way. No potency is given beside an inconclusive call; the fits are too rough.
# Assay: qHTS for induction of synthetic lethality in tumor cells producing 2HG: qHTS for the HT-1080-IDH1KD cell line;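 for activity, negative = toxicity: 0% = DMSO wells and -100% = cell-free medium wells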
# Settings: HT-1080 IDH1 knockdown viability, ATP luminescence, 48 h; activity, negative = toxicity: at 46.1 µM (top of the series) unless noted
# How it was run: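 Using the IDH1-knockdown HT-1080 line run in the same batch and compound series as the NT line, viability after 48 h at 37 °C was determined by CellTiter-Glo luminescence and expressed as % activity.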
# Potency is the fitted concentration of half-maximal effect; tags give direction and shape of the fitted curve.
Compound,Potency,"activity, negative = toxicity"
COC(=O)[C@@H](Cc1ccccc1)NC(=O)NCCc1c[nH]c2ccccc12,"inconclusive [cytotoxic, partial curve, poor fit]",–
Cc1nn(C)c(C)c1NC(=O)CCl,"inconclusive [cytotoxic, single point]",–
O=C(CCOc1ccccc1)N1CCN(S(=O)(=O)c2cccs2)CC1,inactive,–
CN1CCN(C(=O)c2cc3nc(-c4ccccc4)cc(-c4ccccc4)n3n2)CC1,"inconclusive [cytotoxic, single point]",–
COc1ccc(-c2cc(NC(C)=O)c3ncc(-c4ccc(F)cc4)n3c2)cc1OC,inactive,–
CCc1ccccc1NNC(=O)CCc1ccccc1,–,inconclusive: -32.4% [cytotoxic]
Cc1cc(C(=O)N2CC=C(c3ccccc3)CC2)c2ccccc2n1,active: 1.64 µM,–
COc1ccc(C(NC(=O)CC(C)C)c2c(O)ccc3ccccc23)cc1 (stereo not drawn),"inconclusive [cytotoxic, single point]",–
O=C(Nc1ccccc1N1CCCCC1)c1cccc([N+](=O)[O-])c1,inactive,–
COc1ccc(C(=O)NCC(c2ccco2)N2CCc3ccccc32)cc1 (stereo not drawn),active: 5.8 µM,–
Cc1nnc(NC(=O)c2nc(S(=O)(=O)Cc3ccccc3)ncc2Cl)s1,active: 20.6 µM,–
CCOC(=O)c1ccccc1Nc1cn(C(C)=O)c2ccccc12,"inconclusive [cytotoxic, full curve]",–
CCN(CC)CCNC(=O)c1ccc(NC(=O)c2c(C)nn(-c3ccc(F)cc3)c2Cl)cc1,"inconclusive [cytotoxic, single point]",–
COc1ccccc1-[n+]1c(C)cc(/C=C2\Sc3ccccc3N2C)cc1C,active: 0.58 µM,–
Cn1sc2ccccc2c1=O,"inconclusive [cytotoxic, single point]",–
Cc1cc2nc3ccc(=[N+](C)C)cc-3sc2cc1N,active: 4.11 µM,–
CC(=O)NC(c1ccc(N(C)C)cc1)c1cc(Cl)c2cccnc2c1O (stereo not drawn),"inconclusive [cytotoxic, partial curve]",–
COC(=O)c1cc(NC(=O)c2cc(-c3ccc(Cl)cc3)oc2C(F)(F)F)ccc1N1CCOCC1,"inconclusive [cytotoxic, single point]",–
C=CCNC(=S)N1CCC(C(=O)c2ccc(F)cc2)CC1,inactive,–
N#Cc1c(N)nc2c3c(sc(=N)c2c1N)NC(=O)CC3c1ccccc1 (stereo not drawn),"inconclusive [cytotoxic, single point]",–
COc1nc(-c2cccs2)cc(-c2ccc(C)cc2)c1C#N,"inconclusive [cytotoxic, full curve]",–
CCNC(=S)N(Cc1ccccc1)Cc1nc2ccccc2c(=O)[nH]1,inactive,–
COc1cccc(C(=O)C(CCC#N)c2ccccc2)c1 (stereo not drawn),inactive,–
Cc1ccsc1/C=N\NC(=O)Cn1nnc2ccccc21,"inconclusive [cytotoxic, partial curve, poor fit]",–
COc1ccccc1-n1c(SCC(=O)Nc2ccc3c(c2)OCO3)nc2c(c1=O)SCC2,inactive,–

Compound,Potency,"activity, negative = toxicity"
c1ccc(N(c2ccccc2)c2nc(-n3ccnc3)nc(-n3ccnc3)n2)cc1,"inconclusive [cytotoxic, single point]",–
CC(C)n1cnc2c(NCc3ccccc3)cc(Cc3ccc(F)cc3)cc21,"inconclusive [cytotoxic, single point]",–
O=C(Nc1ccc2ccccc2c1)C(C1CC1)n1c(=O)c(-c2cc3ccccc3[nH]2)nc2ccccc21 (stereo not drawn),"inconclusive [cytotoxic, partial curve]",–
CC(OC(=O)CCc1c[nH]c2ccccc12)C(=O)c1ccccc1 (stereo not drawn),inactive,–
O=C(NCc1ccccc1)c1cccc(COc2cccc(Cl)c2)c1,"inconclusive [cytotoxic, single point]",–
CN(C)c1ccc(/C=C/c2nc3ccccc3c(=O)n2CCO)cc1,"inconclusive [cytotoxic, partial curve]",–
Brc1ccc(CSc2nnc(-c3ccccn3)n2Cc2ccco2)cc1,active: 11.2 µM,–
CC1CCc2c(sc3ncn(N)c(=N)c23)C1 (stereo not drawn),"inconclusive [cytotoxic, single point]",–
CNC(=S)NN=C(C)c1ccc(OC)cc1O,inactive,–
CC(N)c1csc(Nc2ccc(C(=O)c3ccccc3)cc2)n1 (stereo not drawn),inactive,–
CN(C)CCNc1nc(-c2ccccc2F)c2sccc2n1,"inconclusive [cytotoxic, single point]",–
Cc1ccc(C(=O)NC2CCCc3ccccc32)cc1[N+](=O)[O-] (stereo not drawn),active: 13 µM,–
COc1cc(C(=O)COC(=O)c2ccc3c(c2)OCCO3)cc(OC)c1OC,"inconclusive [cytotoxic, single point]",–
CCOc1ccc(-c2c(C(=O)N/N=C/c3cccc(Br)c3)nnn2-c2nonc2N)cc1,"inconclusive [cytotoxic, single point]",–
Cc1cc(C)nc(N(C#N)CC(=O)c2ccccc2)n1,"inconclusive [cytotoxic, single point]",–
C=CCC[C@H](Cc1ccc(F)cc1)C(=O)OC[C@H](Cc1c[nH]c2ccccc12)NC(=O)[C@@H](CC=C)CC(=O)N(CCO)Cc1ccccc1,"inconclusive [cytotoxic, single point]",–
COc1cc(/C=N/NC(=O)Nc2ccccc2)ccc1OCCOc1ccccc1C,active: 7.08 µM,–
Cc1cccc(Nc2nc(N)nc(CN3CCN(c4ccc(F)cc4)CC3)n2)c1,inactive,–
O=C1CN(C(=O)COc2ccc(Br)cc2Br)c2ccccc2N1,inactive,–
COCCn1c(SCc2cccc([N+](=O)[O-])c2)nc2ccccc2c1=O,"inconclusive [cytotoxic, single point]",–
Cn1ccc2c(-c3ccc(C(N)=O)cc3)cc3c(c21)C1CCC3C1 (stereo not drawn),"inconclusive [cytotoxic, partial curve]",–
O=C(NCc1cccnc1)c1ccc(NC(=O)c2ccc(Br)cc2)cc1,active: 5.8 µM,–
COC(=O)c1c(NC(=O)/C=C/C(=O)O)sc(Cc2ccccc2)c1C,"inconclusive [cytotoxic, single point]",–
Cc1cccc(C)c1NC1=NCCCCC1,inactive,–
CCNC(=O)c1cc2c(c(-c3cccc(-c4ccccc4F)c3)n1)[C@H](CCO)N(C(=O)CC)C2,"inconclusive [cytotoxic, partial curve]",–

Compound,Potency,"activity, negative = toxicity"
CC(=O)Nc1ccc(-c2cc(C(=O)O)c3ccccc3n2)cc1,"inconclusive [rising, single point]",–
CCN1CCN(S(=O)(=O)c2ccc(Cl)c(C(=O)N(CCc3ccccc3)Cc3ccccc3)c2)CC1,"inconclusive [cytotoxic, single point]",–
Cc1cc(C)[n+](-c2ccc(F)cc2)c2[nH]c(=O)[nH]c(=O)c12,inactive,–
Cc1[nH]c2ccccc2c1C(=O)Cn1c(=O)oc2ccccc21,"inconclusive [cytotoxic, single point]",–
Cc1ccc(C(=O)c2cn[nH]c2-c2cc(Cl)ccc2O)cc1,"inconclusive [cytotoxic, single point]",–
CCCCN(C=O)c1c(CC)nc2c(OCC3CCCCC3)cccn12,inactive,–
O=C(/C=C/c1cccc(O)c1)c1cccnc1,"inconclusive [cytotoxic, single point]",–
O=C(CC(O)c1ccncc1)c1ccccc1O (stereo not drawn),"inconclusive [cytotoxic, single point]",–
CCCCCCCCN1C(=O)[C@H](CC(=O)NCc2cccc(C(F)(F)F)c2)C[C@@]2(C(=O)OC)CCCCC=C12,"inconclusive [cytotoxic, single point]",–
COc1cc(C(Nc2ccccn2)c2ccc3ccc(C)nc3c2O)cc(OC)c1O (stereo not drawn),active: 14.6 µM,–
CCOc1ccc(N(CC(=O)NC2CC2)S(=O)(=O)c2ccc(C)cc2)cc1,inactive,–
CC(=O)[C@@]1(O)CC[C@H]2[C@@H]3C[C@H](C)C4=CC(=O)CC[C@]4(C)[C@H]3CC[C@@]21C,inactive,–
CS(=O)(=O)N(CC(=O)Nc1ccccc1C(=O)NCc1ccco1)c1ccc2c(c1)OCCO2,"inconclusive [cytotoxic, single point]",–
Cc1sc2nc(CSc3ccccc3)nc(N3CCN(C)CC3)c2c1C,"inconclusive [cytotoxic, single point]",–
Cc1ccc(NC(=O)Cc2nc(COC(=O)Cc3cccc(C(F)(F)F)c3)cs2)cc1,inactive,–
CN1CCN(NC(=O)c2cc(-c3cccc(Cl)c3)nc3ccccc23)CC1,"inconclusive [cytotoxic, single point]",–
COc1ccc(-c2nn(-c3ccccc3)cc2C(=O)N/N=C/c2ccc([N+](=O)[O-])o2)cc1,"inconclusive [cytotoxic, single point]",–
COc1ccc(-c2cc(NC=O)c3ncc(-c4ccc(C(C)=O)cc4)n3c2)cc1OC,active: 13 µM,–
CCCCCc1ccc(OCCCC[n+]2ccccc2)c(CCCCC)c1,active: 8.2 µM,–
O=c1c(-c2cc3ccccc3[nH]2)nc2ccccc2n1C(CCc1ccccc1)c1nc2ccccc2[nH]1 (stereo not drawn),"inconclusive [cytotoxic, single point]",–
CC(C)Cn1c(N)c(C(=O)COC(=O)COc2cccc(C(F)(F)F)c2)c(=O)n(C)c1=O,inactive,–
Cc1csc(=O)n1CCC(=O)NCc1ccc(F)cc1,inactive,–
CCOC(=O)c1[nH]c(C)c(C(=O)Nc2ccc(C)cc2C)c1C,active: 11.6 µM,–
